Data on four compounds can be found in PubChem BioAssay (NCI).

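Protocol summary: plate cells (96-well), add compound at 5 concentrations, incubate 48 h, interpolate endpoints linearly. The concentration for 50% growth inhibition is given as GI50.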 For part of its entries the source gives two or more results. This list holds those alone. The source may hold further records. For part of these data: The tests behind the records often covered other concentration ranges, not given here; some values may only mark the edge of a range. For part of these data: Results that share an entry repeat one measurement across runs, samples, wells, individuals or studies. Brackets tell where a record comes from. Letters hold for one entry only.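 The concentration for full growth arrest is given as TGI.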 Bounds are passed on as bounds.

Test in all cases: inhibition of tumour cell growth, NCI panel, 48 h
Assay [1] relates to A549 NSCLC.
Assay [2] relates to CCRF-CEM leukemia.
Assay [3] has as its system HS 578T breast.
The test system of assay [4] is LOX IMVI melanoma.
Assay [5] has as its system MCF7 breast.
Assay [6] deals with NCI-H522 lung.
Assay [7] relates to OVCAR-8 ovarian.
The subject of assay [8] is SF-268 CNS.
The subject of assay [9] is T-47D breast.
The subject of assay [10] is TK-10 renal.
Assay [11] has as its system UACC-257 melanoma.
Assay [12] deals with IGROV1 ovarian.
For assay [13], the system named is M14 melanoma.
In assay [14] the test system is MALME-3M melanoma.
Assay [15] deals with NCI-H226 lung.
In assay [16] the test system is RXF-631 renal.
Assay [17] deals with SF-295 CNS.
For assay [18], the system named is 786-0 renal.
For assay [19], the system named is A498 renal.
For assay [20], the system named is DU-145 prostate.
Assay [21] relates to HL-60(TB) leukemia.
Assay [22] relates to HOP-62 NSCLC.
The test system of assay [23] is K-562 leukemia.
For assay [24], the system named is MDA-MB-435.
Assay [25] concerns NCI/ADR-RES ovarian.
In assay [26] the test system is OVCAR-3 ovarian.
The test system of assay [27] is OVCAR-4 ovarian.
In assay [28] the test system is RXF 393 renal.
For assay [29], the system named is SF-539 CNS.
Assay [30] has as its system SK-MEL-28 melanoma.
Assay [31] has as its system SK-MEL-5 melanoma.
Assay [32] concerns SW-620 colon.
Assay [33] has as its system ACHN renal.
The test system of assay [34] is HCC-2998 colon.
Assay [35] deals with HCT-15 colon.
Assay [36] has as its system NCI-H23 lung.
For assay [37], the system named is NCI-H460 lung.
For assay [38], the system named is SK-OV-3 ovarian.
The test system of assay [39] is U251 CNS.

Take `COc1ccc(Cn2cc(Cn3c(=O)c(-c4nc5ccccc5[nH]4)cc4ccccc43)nn2)c(OC)c1OC`: the TGI in assay [1] is 1.78 µM and > 100 µM; in [2], 6.43 µM and > 100 µM; in assay [3], 873 nM and > 100 µM; in assay [4], 2.66 µM and > 100 µM; in assay [5] it was 897 nM and > 100 µM; in [6] it was 698 nM and > 100 µM. For the same compound, the TGI was 1.97 µM and > 100 µM in [7]; 1.97 µM and 26.8 µM in [8]; 1.35 µM and > 100 µM in assay [9]; 1.82 µM and 74.4 µM in assay [10]; 4.58 µM and > 100 µM in assay [11].

For the compound `CCCCCCCCCC(=O)N[C@H]1CCc2cc(OC)c(OC)c(OC)c2-c2ccc(SC)c(=O)cc21`, the TGI in assay [12] was 982 nM and > 100 µM; in [13], 63 nM and 3.33 µM; in assay [14] it was 70.4 nM and > 100 µM; in assay [15], 53 nM and 3.61 µM; in [7], 179 nM and 10.9 µM; in assay [16] it was 49.5 nM and 13.2 µM. Also, the TGI in assay [8] was 162 nM and 2.45 µM; in [17], 60 nM and 71.8 µM.

On to `O=[N+]([O-])c1ccc(O)c2ncccc12`, for which the GI50 in assay [18] is > 100 µM [sample A, 1 test] and 2.93 µM [sample B, 1 test]; in assay [2] it was > 100 µM [sample A, 1 test] and 2.75 µM [sample B, 1 test]; in [20], > 100 µM [sample A, 1 test] and 3.68 µM [sample B, 1 test]; in assay [21] it was > 100 µM [sample A, 1 test] and 2.31 µM [sample B, 1 test]; in assay [23], > 100 µM [sample A, 1 test] and 3.17 µM [sample B, 1 test]; in [24] it was > 100 µM [sample A, 1 test] and 3.31 µM [sample B, 1 test]. For the same compound, the GI50 in [15] was > 100 µM [sample A, 1 test] and 3.58 µM [sample B, 1 test]; in [28], > 100 µM [sample A, 1 test] and 4.72 µM [sample B, 1 test]; in assay [29] it was > 100 µM [sample A, 1 test] and 4.04 µM [sample B, 1 test]; in assay [30], > 100 µM [sample A, 1 test] and 5.8 µM [sample B, 1 test]; in [32], > 100 µM [sample A, 1 test] and 3.74 µM [sample B, 1 test]; in [11], > 100 µM [sample A, 1 test] and 2.26 µM [sample B, 1 test]. Also, the TGI was > 100 µM [sample A, 1 test] and 9.84 µM [sample B, 1 test] in [19]; > 100 µM [sample A, 1 test] and 5.64 µM [sample B, 1 test] in assay [21]; > 100 µM [sample A, 1 test] and 8.87 µM [sample B, 1 test] in assay [22]; > 100 µM [sample A, 1 test] and 5.63 µM [sample B, 1 test] in [6]; > 100 µM [sample A, 1 test] and 9.76 µM [sample B, 1 test] in assay [25]; > 100 µM [sample A, 1 test] and 6.81 µM [sample B, 1 test] in assay [26]. Further, the TGI in [27] was > 100 µM [sample A, 1 test] and 6.93 µM [sample B, 1 test]; in assay [31] it was > 100 µM [sample A, 1 test] and 7.79 µM [sample B, 1 test]; in [9], > 100 µM [sample A, 1 test] and 8.44 µM [sample B, 1 test]; in assay [11] it was > 100 µM [sample A, 1 test] and 9.16 µM [sample B, 1 test].

For the compound `COc1cc2c3c(n(CCCNCCN4CCOCC4)c(=O)c2cc1OC)-c1cc2c(cc1C3=O)OCO2`, the GI50 was < 5 nM and 461 nM in [33]; < 5 nM and 1.12 µM in assay [34]; < 5 nM and 225 nM in assay [22]; < 5 nM [1 test] and 841 nM [mean of 2 tests] in assay [5]; < 5 nM and 825 nM in [36]; < 5 nM [1 test] and 254 nM [mean of 2 tests] in assay [37]. Also, the GI50 in assay [27] was 199 nM [1 test] and 2.78 µM [mean of 2 tests]; in assay [28] it was 270 nM and 5.83 µM; in assay [8], 8.01 nM [1 test] and 2.87 µM [mean of 2 tests]; in assay [31] it was 142 nM [1 test] and 2.39 µM [mean of 2 tests]; in assay [39], < 5 nM and 663 nM. Further, the TGI in assay [34] was 153 nM and 2.53 µM; in [35] it was 1.36 µM [1 test] and > 100 µM [mean of 2 tests]; in assay [21] it was 1.63 µM [1 test] and > 30.6 µM [mean of 2 tests]; in assay [5] it was 519 nM [1 test] and > 100 µM [mean of 2 tests]; in assay [37] it was 718 nM [1 test] and > 100 µM [mean of 2 tests]; in assay [28], 1.13 µM and > 100 µM. Moreover, the TGI in [30] was 50 µM [1 test] and 4.32 µM [mean of 2 tests]; in assay [38], 50 µM and 3.81 µM.
